Among all 310,000 compounds or so, about 11,000 (3.5%) were called active. The inconclusive results got no clear call from the source; some entries with a clear call stand among them for comparison. The call rests on the fitted dose curve; in most records, active means well fitted inhibition curve with a large enough effect; inconclusive means small, poorly fitted or top-dose-only effect, or effect the other way; inactive means flat fitted curve, though single readings scatter. Potencies of inconclusive entries are left out as doubtful fits.
Experiment: VP16 counterscreen qHTS for inhibitors of ROR gamma transcriptional activity;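 further: Gal4-VP16 expression switched on by copper sulfate through the metallothionein promoter; nearly all actives have a fitted effect of over 50% in size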
Settings: Drosophila S2 Gal4-VP16 UAS-luciferase, luminescence, 20 h; activity, negative = inhibition: at 53.6 µM (top of the series)
On the % scale 0 is the no-effect control and ±100 the full control effect; potency means the concentration at half of the fitted maximal effect; tags describe the fitted curve by direction and shape.

SMILES | Potency | activity, negative = inhibition
O=C(Nc1ccc(Cl)c(Cl)c1)C1CC(=O)N(c2ccc(Br)cc2)C1 (centres undefined) | inconclusive [inhibitor, single point] | 
COc1ccc2c(c1)CCC/C2=N\Nc1nc(C(=O)NN)cs1 | active: 12.6 µM | 
CCc1cc2ccccc2nc1Cl |  | inactive: 3.74%
CCC(C)NC(=S)Nc1ccccc1 (centres undefined) | inconclusive [inhibitor, single point] | 
CC(C)(C)CC(=O)NC(=S)Nc1ccccc1C(F)(F)F | active: 20 µM | 
C=CCn1c(O)c(N=NC(=S)Nc2cccc(OC)c2)c2ccccc21 | active: 2.51 µM | 
CCN(CC)N=Nc1ccc(S(=O)(=O)Nc2nc(C)cc(C)n2)cc1 | inactive | 
O=C(c1ccco1)N1CCN(C(c2ccccc2Cl)c2nnnn2Cc2ccco2)CC1 (centres undefined) | inconclusive [activator, single point] | 
CCCCC(=O)Nc1nc(C)c(-c2csc(Nc3ccc(Cl)cc3)n2)s1 | inconclusive [inhibitor, single point] | 
CC1=NN(C(N)=S)C(=O)C1N=Nc1ccc(Cl)cc1 (centres undefined) | active: 1.12 µM | 
COc1ccc(NC2CCCN(Cc3cccc4cnccc34)C2)cc1 (centres undefined) |  | inactive: -5.06%
CCn1cc(Br)c(C(=O)Nc2ccc(C(=O)OC(C)C)cc2)n1 | inconclusive [inhibitor, single point] | 
O=C(CS(=O)(=O)c1ccccc1)c1cc2cc(F)ccc2oc1=O | inconclusive [inhibitor, single point] | 
C/C=C/C(=O)[C@@H](C)[C@@H](/C=C/C[Si](C)(C)C)c1ccccc1 | inconclusive [inhibitor, single point] | 
CCOC(=O)c1c(-c2ccc(C)cc2)csc1NC(=O)c1cc2ccccc2oc1=O | inconclusive [inhibitor, single point] | 
O=C(Cc1ccc([N+](=O)[O-])cc1)NC1CCCCCC1 |  | inactive: 0.246%
CCCSc1nnc(-c2cnn(-c3ccccc3)c2-n2cccc2)n1C | inconclusive [inhibitor, single point] | 
COCCCN(C(=S)Nc1ccc(C)cc1Cl)C(C)c1ccncc1 (centres undefined) | inconclusive [inhibitor, single point] | 
COC(=O)C1(Cc2cc(-c3ccc(OC)cc3OC)no2)CCN(C(=O)OC(C)(C)C)CC1 |  | inactive: -1.1%
CCc1nnc(NC(=O)c2ccc(S(=O)(=O)N3CCCC(C)C3)cc2)o1 (centres undefined) | active: 0.631 µM | 
Cc1ccc(C2=NNC(=Nc3ccc(F)cc3)SC2)cc1 | inconclusive [activator, full curve] | 
COc1ccc(NC(=S)N2CCN(C/C=C/c3ccccc3)CC2)cc1 | inconclusive [inhibitor, single point] | 
COCc1nnc(NC(=O)c2ccc(S(=O)(=O)N(C)C3CCCCC3)cc2)o1 | active: 4.47 µM | 
COCCN=c1scc(-c2cccs2)n1/N=C(\C)c1ccco1 | inconclusive [activator, full curve] | 
CCCCNC(=S)NNC(=O)c1csc(CC)c1 | inconclusive [inhibitor, single point] | 

SMILES | Potency | activity, negative = inhibition
CCc1ccc(OCC2c3cc(OC)c(OC)cc3CCN2C(C)=O)cc1 (centres undefined) | inconclusive [inhibitor, single point] | 
CC(C)(C)c1nnc(N/N=C/c2cc(Br)ccc2O)n(N)c1=O | active: 10 µM | 
Cc1cc(CSc2ccccc2)ccc1NC(=O)COc1ccccc1C |  | inactive: -20.1%
Cc1c(Cl)cccc1NC(=S)NC1CC1 | inconclusive [inhibitor, single point] | 
CN1C/C(=C/c2ccncc2)C(=O)/C(=C/c2ccncc2)C1 | active: 3.98 µM | 
COc1ccc(N2C(=O)CC(Sc3n[nH]c(-c4ccc(C)cc4)n3)C2=O)cc1 (centres undefined) | inconclusive [inhibitor, single point] | 
CCCC(=O)NC(=S)Nc1ccccc1OC | inconclusive [inhibitor, single point] | 
CCOC(=O)c1cnc(-n2cc(C)cn2)nc1NCc1ccc2c(c1)OCO2 | inconclusive [inhibitor, single point] | 
COc1ccc(NS(=O)(=O)c2cccc(NC(=O)c3ccc(Cl)nc3)c2)cc1 | active: 2.82 µM | 
CC1CCC(NC(=O)c2ccc3c(c2)OCO3)CC1 (centres undefined) | inconclusive [inhibitor, single point] | 
CSc1ccc(-c2sc(Nc3cccc4ccccc34)n[n+]2-c2ccccc2)cc1 | inconclusive [inhibitor, single point] | 
COc1ccc2nc(Nc3nc(CSc4nc5ccccc5[nH]4)cc(=O)[nH]3)nc(C)c2c1 | active: 5.01 µM | 
N/C(Cc1ccc(Cl)cc1Cl)=N\OC(=O)Cc1ccc(Cl)cc1 | inconclusive [inhibitor, partial curve, poor fit] | 
BrC(=C\c1ccccc1)/C=N/Nc1nc2ccccc2[nH]1 | active: 5.01 µM | 
O=C(NCc1ccc2c(c1)OCO2)c1cc(-c2ccncc2)nc2ccccc12 |  | inactive: -7.15%
O=C(CSc1nc2ccc(Nc3nc(N4CCOCC4)nc(N4CCOCC4)n3)cc2s1)Nc1ccccc1F |  | inactive: -23.6%
CCOC(=O)c1ccc2nc(C)c(CCC(C)=O)c(Cl)c2c1 |  | inactive: -8.41%
COc1ccc(Cl)cc1N(C(C)C(=O)O)S(C)(=O)=O (centres undefined) |  | inactive: 10.5%
N#Cc1cccc(NC(=O)Cn2cnc(S(=O)(=O)N3CCCCC3)c2)c1 |  | inactive: -6.6%
COc1ccccc1CNC(=O)c1cccc(-c2ccc(C)c3ccccc23)n1 | inconclusive [inhibitor, single point] | 
c1ccc2sc(SCc3ccc(-c4nnco4)cc3)nc2c1 | inconclusive [inhibitor, single point] | 
O=C(O)c1ccc2nc3c(nc2c1)-c1ccccc1C3=O | inconclusive [inhibitor, partial curve] | 
O=C(Nc1nc(-c2ccccn2)cs1)C1COc2ccccc2O1 (centres undefined) | active: 0.199 µM | 
CCCCOc1ccc(/C=N/NC(=S)Nc2cc(C)ccc2C)cc1 | active: 5.01 µM | 

Reference: PubChem BioAssay AID2546 (National Center for Advancing Translational Sciences (NCATS), 2010)
